In PubChem BioAssay (NCI):
Several values for one entry are separate records, joined by “and”; a condition that tells them apart may be missing. Identical values can stand only once.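 Each compound was tested at five concentrations against cells in 96-well plates for 48 hours. The concentration for 50% growth inhibition is given as GI50. TGI marks complete inhibition of growth.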 Numbered stars: 1 amine (or outer) side, 2 acyl side, 3 side chain; on linkers, the order of the positions; unused ones are H or OH. Bridge positions count the residues as written; N and C are the ends. Square brackets hold non-standard residues; d marks the D form. Peptide text beside a SMILES is read from it. I, II: the chains in the order shown. Actinocin(9to1) = Cc1c2oc3c(C)ccc(C(=O)[*:1])c3nc-2c(C(=O)[*:2])c(N)c1=O; NMeT = CN[CH](C(=O)O)[CH](C)O; Sar = CNCC(=O)O

Tested on: NCI-H322M lung
Experiment: DTP human tumour cell line panel, 48 h

SMILES	TGI [µM]	GI50
O=C(O)CCCSc1ccccc1	> 100	–
O=C(N/N=C/c1c(-c2ccccc2)no[n+]1[O-])N1CCOCC1	> 100	–
CN(C)CCCNc1ccc2c(=O)n(CCN(C)C)c(=O)n3c4ccccc4c(=O)c1c23	0.315	–
COc1ccc(-c2cc(-c3cccn3C)c(C#N)c(=O)[nH]2)cc1OC	> 100	> 100 µM
Cc1cc(O)cc2c1[C@]1(C)CCC3C(C)(C)CCC[C@]3(C)[C@H]1C2 (stereo partly drawn)	36.9	20.9 µM
CC(=O)OC1CCn2nnc(CO)c21 (stereo not drawn)	> 100	–
NC1CCC(Nc2nc(NCc3ccc(-c4ccccc4O)nc3)c3ncn(C4CCCC4)c3n2)CC1 (stereo not drawn)	1.17	0.0284 µM
COc1cccc(/C=C2\CCCc3ccccc3C2=O)c1	42.7	–
C=C1C(=O)OC2C1CCC(C)C1C=CC(=O)C12C (stereo not drawn)	17.9	–
CC[C@@H]1C(=O)OC[C@@H]1Cc1cncn1C	> 100	–
CC1=CC[C@H](C(C)C)C(C(O)[C@@H](C)O[Si](c2ccccc2)(c2ccccc2)C(C)(C)C)C1=O (stereo partly drawn)	65.1	–
CC(=O)c1cccc(C)c1C(=O)O	> 100	–
N#CC1C(=O)SC2c3ccccc3C(=O)c3ccccc3C12 (stereo not drawn)	> 10	–
CCOC(=O)/C(=C\c1ccc(N(CCC#N)CCC#N)cc1)NC(=O)c1cc([N+](=O)[O-])ccc1Cl	> 100	–
O=C(c1c(F)c(F)c(F)c(F)c1F)N1CCN(C(=O)c2c(F)c(F)c(F)c(F)c2F)C1=S	29.9	–
CCCCCCc1ccc(C(=O)NO)cc1	> 100	–
COc1cc2cc3c4cc(OC)c(OC)cc4cc[n+]3cc2cc1OC	> 100	–
O=C(Nc1ccccc1)c1cc2ccccc2c(N=Nc2ccc([N+](=O)[O-])cc2)c1O	> 100	–
Nc1c2c(c(O)c3c1=C(CO)C=N3)=NCCS2	0.237	0.115 µM
COC(=O)C1=CSC2(S1)C(C(=O)OC)=CSc1c2ssc1=O (stereo not drawn)	14.2	–
COc1cc(/C=C2\N=C(c3ccccc3)N(c3nc4cc(C)c(C)cc4s3)C2=O)ccc1O	> 100	–
C/C=C1\C=C(OC)CN(CCc2c[nH]c3ccccc23)C1	> 100	–
C[C@]12CCC(=O)C(O)=C1CC[C@@H]1C2CC[C@]2(C)NC(=O)CCC12 (stereo partly drawn)	> 100	–
Cn1c(=O)n2n(c1=O)C(S(=O)(=O)c1ccccc1)C2 (stereo not drawn)	> 100	–
CSC1=Nc2ccccc2-c2nc3ccccc3cc2C1	> 100	–

SMILES	TGI [µM]	GI50
N#CC(C#N)=C/C=C(\Sc1c(Cl)c(Cl)nc(Cl)c1Cl)c1ccc(Cl)cc1	44.4	–
CNC/C(Cl)=N/S(=O)(=O)c1ccc(C)cc1	> 100	–
Nc1nc(N)c2cc(-c3ccccc3)cnc2n1	42	–
Cc1cccc(C)c1CO	> 100	–
O=C1[C@H]2ON(c3ccccc3)C(c3ccccc3)[C@H]2C(=O)N1c1ccc(Cc2ccc(N3C(=O)[C@@H]4ON(c5ccccc5)C(c5ccccc5)[C@@H]4C3=O)cc2)cc1 (stereo partly drawn)	> 100	–
CCOC(=O)NC1C2CC(=O)OC(O2)C1OC(C)=O (stereo not drawn)	> 100	–
Cc1c(CCN2CCOCC2)c(N2CCOCC2)n2c(nc3ccccc32)c1C#N	> 10	–
C=C1C(=O)O[C@H]2[C@H]1CC/C(COC(=O)C(=O)c1cn(C)c3ccc(Cl)cc13)=C\CC[C@@]1(C)O[C@@H]21	4.34	2.04 µM
COc1cc(N2CCC(N3CCN(C)CC3)CC2)ccc1Nc1ncnc(Nc2ccccc2S(=O)(=O)C(C)C)n1	21.9	5.42 µM
CO[C@@H]1C[C@H]2[C@@H]3CC[C@H]([C@@H](C)CO)[C@@]3(C)CC[C@@H]2[C@@]2(C)CC[C@H]3C[C@]312	> 100	–
CC(=O)N1C/C(=C/c2ccc(Cl)cc2)C(=O)/C(=C/c2ccc(Cl)cc2)C1	4.87	2.04 µM
CC(=C/C=C/C=C(C)\C=C\C=C(\C)C(=O)O)/C=C/C=C(/C)C(=O)O	> 100	–
CN1C/C(=C\c2cccs2)C2=NN(C)C(c3cccs3)C2C1 (stereo not drawn)	> 100	–
C1CCCCC2(CCCCCCCCC3(CCC1)OCCO3)OCCO2	> 100	–
CC(=Nc1ccccc1)C1=C(O)C(Cc2ccc(O)cc2)NC1=O (stereo not drawn)	> 100	0.363 µM
Cc1ccc(NC2=C(Cl)C(=O)N(Cc3ccc(Cl)cc3)C2=O)cc1O	21	5.11 µM
C/C(=N\n1c(Cc2ccccc2)n[nH]c1=O)c1ccccc1	> 100	–
CC12CCC(C(Nc3cc(C(F)(F)F)cc(C(F)(F)F)c3)C1=O)C2(C)C (stereo not drawn)	> 100	–
CCOc1ccc(N=Cc2ccc3cc(C)ccc3n2)cc1	> 100	–
C#CC1(OC(C)=O)CCC2C3CC=C4C=C(OC(C)=O)CCC4(C)C3CCC21C (stereo not drawn)	79.3	–
O=C1/C(=C/c2ccc(OC(=O)c3ccccc3)cc2)CCC/C1=C\c1ccc(OC(=O)c2ccccc2)cc1	> 100	–
N#Cc1c(=O)c2ccccc2n2c1[nH]c1ccccc12	> 100	–
O=c1[nH]/c(=C/c2ccc(OCc3ccccc3)cn2)c(=O)[nH]/c1=C/c1ccc(F)cc1	> 43.9	–
O=C1c2ccccc2-c2oc(=O)c3ccccc3c21	> 100	–
COc1ccc(NC([Se])=NC23CC4CC(CC(C4)C2)C3)cc1	9.73	2.35 µM

SMILES	TGI [µM]	GI50
COc1ccc2nccc(SCC(=O)O)c2c1	> 100	–
CCO/C=N\c1c(C#N)c(-c2ccc(Cl)cc2)cn1-c1ccc(C)cc1	> 100	–
C=C1C(=O)O[C@@H]2[C@@H]3O[C@@H](C[C@@H]13)[C@](C)(O)CC/C=C(\C)CCC[C@@H]2C	34.7	–
CC(C)(C)[Si](C)(C)Oc1cc(CO)cc2c1cc(=N)o[n+]2[O-]	> 10	–
CCN(Cc1ccccc1)c1ccc(CO)c(Cl)c1	> 95.9	9.94 µM
CC1(C)CC2=C(Sc3ccccc3N2)C(=O)C1C(=O)C(=O)Nc1cccc([N+](=O)[O-])c1 (stereo not drawn)	> 100	–
Cc1c(S(=O)(=O)O)ccc(N=Nc2c(O)c(C(=O)O)cc3ccccc23)c1Cl	> 100	–
N#CC1=C(N)Oc2c(ccc3ccccc23)C1c1ccccc1 (stereo not drawn)	20.4	0.0879 µM
O=C(c1ccccc1)c1c(-c2ccccc2)sc2nc3ccccc3nc12	> 100	–
COc1cccc2c1CCc1c(-c3ccc(F)cc3)cc(-c3ccc4ccccc4n3)nc1-2	> 100	–
CC(=O)NC1=C(NC(C)(C)C)C(=O)c2ccccc2C1=O	> 100	–
COc1cccc(/C=C/[N+](=O)[O-])c1	30.3	14.4 µM
C=C(C#N)C1OCC2OC(C)(C)OC21 (stereo not drawn)	> 100	–
Nc1nc2c(c(=O)[nH]1)C(c1ccccc1)CC(=O)N2 (stereo not drawn)	> 100	–
CC(NO)/C(=N/O)c1ccco1 (stereo not drawn)	> 10	–
O=C(Nc1ccc(Cl)cc1Cl)C1C(=O)C(=O)N(c2ccc(Cl)cc2Cl)C1=O (stereo not drawn)	> 100	–
CCCN(CCC)c1ccc(/C=C/c2ccc3cc(OCC)ccc3n2)cc1	> 100	> 100 µM
CNC(=O)c1ccc(N2C(=S)N(c3ccc(C#N)c(C(F)(F)F)c3)C(=O)C2(C)C)cc1F	> 100	> 53.5 µM
CC(C)C[C@H](NC(=O)Cn1ccc(NCc2ccccc2)cc1=O)B(O)O	> 100	> 62.5 µM
C#CCOCn1cnc2c(Sc3c([N+](=O)[O-])ncn3C)ncnc21	> 100	–
Oc1cc2c3c(c1)CCCN3CCC2	> 10	–
CCCCN1CN2C(=O)C(C(=O)OCC)C(=O)c3sc4nc(SC)nc1c4c32 (stereo not drawn)	27.1	–
Clc1nssc1=Nc1nonc1-c1ccccc1	> 100	–
O=C1Cc2c([nH]c3ccccc23)-c2ccccc2N1	98.4	–
COc1ccc(C2SCC(=O)N2NC(=O)c2ccncc2)cc1F (stereo not drawn)	> 100	–

SMILES	TGI [µM]	GI50
O=C1O[C@H](c2ccccc2)[C@@H]2CC3(CCN12)OCCO3	> 100	–
COc1ccc(S(=O)(=O)NC(CCC(=O)NN)C(=O)NN)cc1 (stereo not drawn)	> 100	–
CC1C/C(=C\c2ccc(OC(=O)C(C)(C)C)cc2)C(=O)/C(=C/c2ccc(OC(=O)C(C)(C)C)cc2)C1 (stereo not drawn)	> 100	–
CC1(C)CCc2c(c(N=Nc3ccc(S(N)(=O)=O)cc3)c3ccccc3c2O)O1	26.6	–
c1cc(N2CCCN(c3ccc(C4=NCCCN4)cc3)CC2)ccc1C1=NCCCN1	> 100	> 100 µM
COC(=O)c1ccccc1C1CN=NC12Cc1ccccc1C2=O (stereo not drawn)	> 100	–
COc1ccc(-c2cc(-c3ccc(Cl)cc3)nc(SCCCC(=O)NO)n2)cc1	6.32	0.816 µM
COc1ccc(/C(COc2ccc3c(=O)c(-c4ccccc4)coc3c2)=N\O)cc1	33	5.56 µM
O=S(=O)(c1ccccc1)C(c1ccc2ccccc2n1)S(=O)(=O)c1ccccc1	> 100	–
CC1CN=C(Nc2ccccc2)S1 (stereo not drawn)	> 100	–
CCN1C(=O)C(=C/C=C/C=C2/N(C)c3ccccc3C2(C)C)C(=O)N(CC)C1=S	> 100	–
Cc1c2oc3c(C)ccc(C(=O)NC4C(=O)NC(C(C)C)C(=O)N5CCCC5C(=O)N(C)CC(=O)N(C)C(C(C)O)C(=O)OC4C)c3nc-2c(C(=O)NC2C(=O)NC(C(C)C)C(=O)N3CCCC3C(=O)N(C)CC(=O)N(C)C(C(C)O)C(=O)OC2C)c(N)c1=O (stereo not drawn) (I: TVP[Sar][NMeT] / II: TVP[Sar][NMeT]; ester I:1-I:C, II:1-II:C; linker I:N-II:N via Actinocin(9to1); configuration not given here)	> 100	8.07 µM and > 1 µM
Cc1cc(C)c(S(=O)(=O)N2CCCN(S(=O)(=O)c3c(C)cc(C)cc3C)OCCCO2)c(C)c1	> 100	–
COC(=O)[C@]12CC[C@H]3CC[C@H]([C@H]31)[C@H](c1ccccc1)N2	42.2	–
CCN(CC)CCC(=O)c1ccc(C)cc1	> 100	–
COc1ccc(-c2cc(=O)c3ccccc3o2)cc1N	> 100	–
CS(=O)(=O)CCNCc1ccc(-c2ccc3ncnc(Nc4ccc(OCc5ccccc5)c(Br)c4)c3c2)o1	> 25	2.37 µM
COc1ccc(-c2c3c(cc4cc5c(cc24)OCO5)C(=O)OC3)cc1OC	> 100	–
CC(C)[O-].CC(C)[O-].O=C1C=C([O-])C(=O)c2ccccc21.O=C1C=C([O-])C(=O)c2ccccc21.[Ti+4]	> 100	> 90.4 µM
COc1cc(-c2ccc(-c3ccc(C(=N)N)nc3)s2)cc(OC)c1OC	11.9	3.23 µM
COC(=O)C1=C(O)c2cc(-c3ccccc3)c(-c3ccccc3)c(C#N)c2NC(=O)C1	> 100	–
CCCCCCCCCCCCN1[C@H]2CCC[C@H]2C(O)[C@@H]2CCC[C@@H]21 (stereo partly drawn)	> 100	–
COc1cc(S(=O)(=O)Nc2nc(-c3ccc(N4C(=O)/C(=C/C=C/c5ccccc5)N=C4c4ccccc4)cc3)cs2)ccc1Cl	> 100	–
O=C1CCCCCCCCCCC1CCCCCBr (stereo not drawn)	84.5	–
CC(=O)OC[C@]1(C)CCCC2(C)C1CCC1C=C(C)[C@H]3CCC12C3 (stereo partly drawn)	> 100	–
